{"source": "the supplement of paper PMC3334620", "note": "The full ranking holds about 33,000 sequences; the median of “E-score (-0.5 to 0.5)” is about -0.041, and the highest 2% start at about 0.37. Some of the results follow."}
{"biological_target": "T1, Ecm22 (UniProt Q05958)", "T1 sequence": "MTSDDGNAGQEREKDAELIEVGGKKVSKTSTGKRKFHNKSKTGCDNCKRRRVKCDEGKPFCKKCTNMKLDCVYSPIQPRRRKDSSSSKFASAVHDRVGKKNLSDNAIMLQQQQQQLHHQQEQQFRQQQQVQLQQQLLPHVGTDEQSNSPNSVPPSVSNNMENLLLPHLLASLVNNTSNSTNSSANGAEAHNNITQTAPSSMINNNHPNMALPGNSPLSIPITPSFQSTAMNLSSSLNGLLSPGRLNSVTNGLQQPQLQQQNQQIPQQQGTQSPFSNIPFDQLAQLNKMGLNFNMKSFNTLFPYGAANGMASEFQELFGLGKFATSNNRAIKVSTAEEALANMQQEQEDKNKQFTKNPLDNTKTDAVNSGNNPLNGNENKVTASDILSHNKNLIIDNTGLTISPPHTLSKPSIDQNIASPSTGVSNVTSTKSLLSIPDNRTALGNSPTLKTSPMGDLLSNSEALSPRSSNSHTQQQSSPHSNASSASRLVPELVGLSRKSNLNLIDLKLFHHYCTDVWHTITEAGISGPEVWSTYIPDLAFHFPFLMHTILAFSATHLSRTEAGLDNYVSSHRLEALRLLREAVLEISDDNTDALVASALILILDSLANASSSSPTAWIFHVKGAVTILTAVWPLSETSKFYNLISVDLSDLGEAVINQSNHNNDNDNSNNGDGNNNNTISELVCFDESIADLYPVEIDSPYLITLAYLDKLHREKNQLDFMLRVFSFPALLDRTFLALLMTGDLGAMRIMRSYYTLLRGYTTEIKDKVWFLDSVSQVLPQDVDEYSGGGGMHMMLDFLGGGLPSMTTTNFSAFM", "assay": "PBM E-score (8-mer binding enrichment) (E-score (-0.5 to 0.5)); higher = stronger / more preferred TF binding; most listed sequences are background and not binding sites", "conditions": "protein concentration: 200 nM; construct: GST-full length", "how_it_was_run": "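The E-score, a modified Wilcoxon-Mann-Whitney statistic, was computed by the Universal PBM Analysis Suite for every ungapped eight-base word pooled with its reverse complement. Scans behind it were normalised with masliner after bound GST-tagged yeast transcription factors were detected with fluorescent anti-GST. The proteins, at about 100-200 nM, had been applied to universal all-10-mer Agilent arrays made double-stranded by primer extension.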"}
{"sequence": "CTGTGAAG", "PBM E-score": -0.059}
{"sequence": "ATTGCAAG", "PBM E-score": -0.0295}
{"sequence": "AGATCACA", "PBM E-score": -0.0185}
{"sequence": "CCCGAAAG", "PBM E-score": 0.0186}
{"sequence": "CATGTGGC", "PBM E-score": -0.127}
{"sequence": "AGGCAGAA", "PBM E-score": -0.0276}
{"sequence": "AAGGCTAT", "PBM E-score": -0.108}
{"sequence": "AGAGATCC", "PBM E-score": -0.087}
{"sequence": "CCACTTAC", "PBM E-score": 0.174}
{"sequence": "CTAGCCGC", "PBM E-score": -0.102}
{"sequence": "ACTACAAT", "PBM E-score": 0.00011}
{"sequence": "GGCGCGCC", "PBM E-score": 0.155}
{"sequence": "CTGCCAAA", "PBM E-score": -0.042}
{"sequence": "CGATTCTA", "PBM E-score": -0.0273}
{"sequence": "AGTCCACT", "PBM E-score": -0.231}
{"sequence": "AAGAAGGT", "PBM E-score": -0.0463}
{"sequence": "AAAAGTCC", "PBM E-score": -0.0944}
{"sequence": "CTACCGCC", "PBM E-score": -0.259}
{"sequence": "AAGTCATC", "PBM E-score": -0.0342}
{"sequence": "AAGAACGG", "PBM E-score": 0.243}
{"sequence": "AGAAGGCC", "PBM E-score": -0.00348}
{"sequence": "AGACCAAG", "PBM E-score": -0.115}
{"sequence": "GAATGCAA", "PBM E-score": 0.0583}
{"sequence": "ACCGGTAC", "PBM E-score": 0.0672}
{"sequence": "TGGAGGAA", "PBM E-score": -0.162}
{"sequence": "CGATAAGC", "PBM E-score": 0.111}
{"sequence": "AGATAGGG", "PBM E-score": -0.127}
{"sequence": "GAAAATGA", "PBM E-score": -0.0403}
{"sequence": "AATAATGA", "PBM E-score": -0.0324}
{"sequence": "ATGCGAAT", "PBM E-score": 0.264}
{"sequence": "CCTTAGCC", "PBM E-score": -0.23}
{"sequence": "TCTAAAGA", "PBM E-score": -0.152}
{"sequence": "AACGGATA", "PBM E-score": 0.258}
{"sequence": "CCAGTCAA", "PBM E-score": -0.166}
{"sequence": "ACTCCGGA", "PBM E-score": 0.181}
{"sequence": "AACCTTAT", "PBM E-score": -0.346}
{"sequence": "ACGGGCAC", "PBM E-score": 0.0891}
{"sequence": "CGCGAGGC", "PBM E-score": 0.272}
{"sequence": "AATAGATC", "PBM E-score": 0.0136}
{"sequence": "GTGACCTA", "PBM E-score": -0.138}
{"sequence": "CGTGGTAG", "PBM E-score": -0.145}
{"sequence": "AAATCCGA", "PBM E-score": 0.177}
{"sequence": "CGCTGATC", "PBM E-score": 0.0573}
{"sequence": "CCTTGTAC", "PBM E-score": 0.0602}
{"sequence": "CCCCATAC", "PBM E-score": -0.0766}
{"sequence": "AGTTTTGG", "PBM E-score": -0.205}
{"sequence": "AGCTCAGG", "PBM E-score": -0.211}
{"sequence": "GGAACCAC", "PBM E-score": -0.116}
{"sequence": "CATCCAGG", "PBM E-score": -0.383}
{"sequence": "CACTATAA", "PBM E-score": -0.153}
{"sequence": "ATATACTC", "PBM E-score": 0.00817}
{"sequence": "AGCGTATA", "PBM E-score": 0.366}
{"sequence": "AAGCCGGC", "PBM E-score": -0.34}
{"sequence": "GCGGTCTA", "PBM E-score": 0.0621}
{"sequence": "CCAAGGTC", "PBM E-score": -0.271}
{"sequence": "AGCAATTG", "PBM E-score": -0.223}
{"sequence": "ACGCAGCT", "PBM E-score": 0.125}
{"sequence": "GGTAGGAA", "PBM E-score": -0.216}
{"sequence": "ATCAAAAT", "PBM E-score": -0.00116}
{"sequence": "AACGTTCA", "PBM E-score": 0.0914}
{"sequence": "AGGGCATC", "PBM E-score": -0.234}
{"sequence": "CATGCGTA", "PBM E-score": 0.23}
{"sequence": "TGCACGCA", "PBM E-score": -0.0249}
{"sequence": "CCAAGAAA", "PBM E-score": -0.242}
{"sequence": "AATACTAA", "PBM E-score": 0.134}
{"sequence": "ATCTGATC", "PBM E-score": -0.0345}
{"sequence": "CCGTCGCC", "PBM E-score": -0.097}
{"sequence": "ACGGACTA", "PBM E-score": -0.0134}
{"sequence": "GGTGAATA", "PBM E-score": -0.266}
{"sequence": "AAACAGAC", "PBM E-score": -0.031}
{"sequence": "CGCTTAAG", "PBM E-score": 0.223}
{"sequence": "TAACCGAA", "PBM E-score": 0.285}
{"sequence": "AACATGCC", "PBM E-score": 0.0142}
{"sequence": "CCGCTACA", "PBM E-score": -0.0208}
{"sequence": "ATTACCAA", "PBM E-score": -0.211}
{"sequence": "GCAAGTCC", "PBM E-score": -0.212}
{"sequence": "CTCGGGCA", "PBM E-score": 0.0983}
{"sequence": "ATGACTCC", "PBM E-score": -0.268}
{"sequence": "CGAGCCGA", "PBM E-score": 0.218}
{"sequence": "AGACCATA", "PBM E-score": 0.101}
{"sequence": "CTTAGTGA", "PBM E-score": -0.137}
{"sequence": "AAGGGCCG", "PBM E-score": -0.056}
{"sequence": "GGTACCCA", "PBM E-score": -0.145}
{"sequence": "AGAAACCC", "PBM E-score": -0.238}
{"sequence": "AGCAGCCA", "PBM E-score": -0.187}
{"sequence": "TAATGTAA", "PBM E-score": -0.044}
{"sequence": "GACTTGAA", "PBM E-score": 0.0599}
{"sequence": "CCCTGAAG", "PBM E-score": -0.145}
{"sequence": "AAAGGGAT", "PBM E-score": -0.167}
{"sequence": "AGCCTCGA", "PBM E-score": 0.0784}
{"sequence": "GCTTACAA", "PBM E-score": -0.144}
{"sequence": "CTCTCCTC", "PBM E-score": -0.177}
{"sequence": "ACCCGCGG", "PBM E-score": 0.0174}
{"sequence": "CGTTCTAC", "PBM E-score": 0.303}
{"sequence": "AGAAAGCC", "PBM E-score": -0.0565}
{"sequence": "TACCCGCA", "PBM E-score": 0.0887}
{"sequence": "CAATGGAG", "PBM E-score": -0.277}
{"sequence": "CAAGAAAA", "PBM E-score": -0.106}
{"sequence": "AGTCACCG", "PBM E-score": -0.00376}
{"sequence": "CGGTGGAC", "PBM E-score": -0.158}
{"sequence": "GACATGGA", "PBM E-score": -0.0123}
{"sequence": "CCTGGAGA", "PBM E-score": -0.141}
{"sequence": "CCTCCTCC", "PBM E-score": -0.0777}
{"sequence": "GATGTGAC", "PBM E-score": 0.036}
{"sequence": "CACTCGAG", "PBM E-score": 0.137}
{"sequence": "GATCGATC", "PBM E-score": 0.171}
{"sequence": "CCCTGGGA", "PBM E-score": -0.307}
{"sequence": "CAACTACA", "PBM E-score": -0.064}
{"sequence": "GCCAGCCA", "PBM E-score": -0.151}
{"sequence": "ATGTACCA", "PBM E-score": 0.0738}
